{"source": "the supplement of paper PMC8728848", "binders": {"B1": {"name": "AAL (Agrocybe aegerita), Q6WY08 (protein)", "chain": "MQGVNIYNISAGTSVDLAAPVTTGDIVTFFSSALNLNAGAGNPNNTTLNLFAENGAYLLHIAHRLQENVIIFNSRQPDGPWLVEQRVSDVANQFAGIDGKAMVTVFDHGDKYQVVINEKTVIQYTKQISGLTLSLSYNATEETSIFSTVVEAVTYTGLALEHHHHHH"}}, "experiment_in_all_cases": "glycan array binding signal (z-score within array); higher = stronger binding", "settings_in_all_cases": "glycan notation: IUPAC condensed, linker removed; mutation: F63H", "key": {"[1]": {"molecular_target": "Gal(b1-4)GlcNAc(b1-2)Man(a1-6)[GlcNAc(b1-2)Man(a1-3)]Man(b1-4)GlcNAc(b1-4)GlcNAc", "outline": "(§1)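 The binding signal is a Z-score computed within each array and averaged over linkers. Arrays of the same protein sequence at different concentrations or buffers were also averaged together. Data originate from 3228 arrays in the Consortium for Functional Glycomics database, kept only where the protein sequence was available.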"}, "[2]": {"molecular_target": "Gal(b1-4)GlcNAc(b1-2)Man(a1-6)[Man(a1-3)]Man(b1-4)GlcNAc(b1-4)GlcNAc", "outline": "as §1"}, "[3]": {"molecular_target": "Gal(b1-4)GlcNAc(b1-2)[Gal(b1-4)GlcNAc(b1-4)]Man(a1-3)[Gal(b1-4)GlcNAc(b1-2)Man(a1-6)]Man(b1-4)GlcNAc(b1-4)GlcNAc", "outline": "as §1"}, "[4]": {"molecular_target": "Gal(b1-4)GlcNAc(b1-2)[Gal(b1-4)GlcNAc(b1-4)]Man(a1-3)[Gal(b1-4)GlcNAc(b1-2)[Gal(b1-4)GlcNAc(b1-6)]Man(a1-6)]Man(b1-4)GlcNAc(b1-4)GlcNAc", "outline": "as §1"}, "[5]": {"molecular_target": "Gal(b1-4)GlcNAc(b1-2)[Gal(b1-4)GlcNAc(b1-4)]Man(a1-3)[GlcNAc(b1-4)][Gal(b1-4)GlcNAc(b1-2)Man(a1-6)]Man(b1-4)GlcNAc(b1-4)GlcNAc", "outline": "as §1"}, "[6]": {"molecular_target": "Gal(b1-4)GlcNAc(b1-2)[Gal(b1-4)GlcNAc(b1-4)]Man(a1-3)[GlcNAc(b1-4)][Gal(b1-4)GlcNAc(b1-2)[Gal(b1-4)GlcNAc(b1-6)]Man(a1-6)]Man(b1-4)GlcNAc(b1-4)GlcNAc", "outline": "as §1"}, "[7]": {"molecular_target": "Gal(b1-4)GlcNAc(b1-2)[Gal(b1-4)GlcNAc(b1-6)]Man(a1-6)[Gal(b1-4)GlcNAc(b1-2)Man(a1-3)]Man(b1-4)GlcNAc(b1-4)GlcNAc", "outline": "as §1"}, "[8]": {"molecular_target": "Gal(b1-4)GlcNAc(b1-2)[Gal(b1-4)GlcNAc(b1-6)]Man(a1-6)[Gal(b1-4)GlcNAc(b1-2)Man(a1-3)]Man(b1-4)GlcNAc(b1-4)[Fuc(a1-6)]GlcNAc", "outline": "as §1"}, "[9]": {"molecular_target": "Gal(b1-4)GlcNAc(b1-2)[Gal(b1-4)GlcNAc(b1-6)]Man(a1-6)[GlcNAc(b1-4)][Gal(b1-4)GlcNAc(b1-2)Man(a1-3)]Man(b1-4)GlcNAc(b1-4)GlcNAc", "outline": "as §1"}, "[10]": {"molecular_target": "Gal(b1-4)GlcNAc(b1-2)[Gal(b1-4)GlcNAc(b1-6)]Man(a1-6)[GlcNAc(b1-4)][Gal(b1-4)GlcNAc(b1-2)[Gal(b1-4)GlcNAc(b1-4)]Man(a1-3)]Man(b1-4)GlcNAc(b1-4)[Fuc(a1-6)]GlcNAc", "outline": "as §1"}, "[11]": {"molecular_target": "Gal(b1-4)GlcNAc(b1-3)Gal(b1-3)GalNAc", "outline": "as §1"}, "[12]": {"molecular_target": "Gal(b1-4)GlcNAc(b1-3)Gal(b1-3)GlcNAc", "outline": "as §1"}, "[13]": {"molecular_target": "Gal(b1-4)GlcNAc(b1-3)Gal(b1-4)Glc", "outline": "as §1"}, "[14]": {"molecular_target": "Gal(b1-4)GlcNAc(b1-3)Gal(b1-4)GlcNAc", "outline": "as §1"}, "[15]": {"molecular_target": "Gal(b1-4)GlcNAc(b1-3)Gal(b1-4)GlcNAc(b1-2)Man(a1-3)[Gal(b1-4)GlcNAc(b1-3)Gal(b1-4)GlcNAc(b1-2)Man(a1-6)]Man(b1-4)GlcNAc(b1-4)GlcNAc", "outline": "as §1"}, "[16]": {"molecular_target": "Gal(b1-4)GlcNAc(b1-3)Gal(b1-4)GlcNAc(b1-2)Man(a1-3)[Gal(b1-4)GlcNAc(b1-3)Gal(b1-4)GlcNAc(b1-2)Man(a1-6)]Man(b1-4)GlcNAc(b1-4)[Fuc(a1-6)]GlcNAc", "outline": "as §1"}, "[17]": {"molecular_target": "Gal(b1-4)GlcNAc(b1-3)Gal(b1-4)GlcNAc(b1-2)[Gal(b1-4)GlcNAc(b1-3)Gal(b1-4)GlcNAc(b1-6)]Man(a1-6)[Gal(b1-4)GlcNAc(b1-3)Gal(b1-4)GlcNAc(b1-2)Man(a1-3)]Man(b1-4)GlcNAc(b1-4)GlcNAc", "outline": "as §1"}, "[18]": {"molecular_target": "Gal(b1-4)GlcNAc(b1-3)Gal(b1-4)GlcNAc(b1-2)[Gal(b1-4)GlcNAc(b1-3)Gal(b1-4)GlcNAc(b1-6)]Man(a1-6)[Gal(b1-4)GlcNAc(b1-3)Gal(b1-4)GlcNAc(b1-2)Man(a1-3)]Man(b1-4)GlcNAc(b1-4)[Fuc(a1-6)]GlcNAc", "outline": "as §1"}, "[19]": {"molecular_target": "Gal(b1-4)GlcNAc(b1-3)Gal(b1-4)GlcNAc(b1-3)Gal(b1-4)GlcNAc", "outline": "as §1"}, "[20]": {"molecular_target": "Gal(b1-4)GlcNAc(b1-3)Gal(b1-4)GlcNAc(b1-3)Gal(b1-4)GlcNAc(b1-2)Man(a1-3)[Gal(b1-4)GlcNAc(b1-3)Gal(b1-4)GlcNAc(b1-3)Gal(b1-4)GlcNAc(b1-2)Man(a1-6)]Man(b1-4)GlcNAc(b1-4)GlcNAc", "outline": "as §1"}, "[21]": {"molecular_target": "Gal(b1-4)GlcNAc(b1-3)Gal(b1-4)GlcNAc(b1-3)Gal(b1-4)GlcNAc(b1-2)Man(a1-3)[Gal(b1-4)GlcNAc(b1-3)Gal(b1-4)GlcNAc(b1-3)Gal(b1-4)GlcNAc(b1-2)Man(a1-6)]Man(b1-4)GlcNAc(b1-4)[Fuc(a1-6)]GlcNAc", "outline": "as §1"}, "[22]": {"molecular_target": "Gal(b1-4)GlcNAc(b1-3)Gal(b1-4)GlcNAc(b1-3)Gal(b1-4)GlcNAc(b1-2)[Gal(b1-4)GlcNAc(b1-3)Gal(b1-4)GlcNAc(b1-3)Gal(b1-4)GlcNAc(b1-6)]Man(a1-6)[Gal(b1-4)GlcNAc(b1-3)Gal(b1-4)GlcNAc(b1-3)Gal(b1-4)GlcNAc(b1-2)Man(a1-3)]Man(b1-4)GlcNAc(b1-4)[Fuc(a1-6)]GlcNAc", "outline": "as §1"}}, "note": "The other results are listed elsewhere or left out.", "data": [{"binder": "B1", "values": [{"measurement": "glycan array binding signal (z-score)", "setting": "[1]", "value": -0.263}, {"measurement": "glycan array binding signal (z-score)", "setting": "[2]", "value": 0.29}, {"measurement": "glycan array binding signal (z-score)", "setting": "[3]", "value": -0.003}, {"measurement": "glycan array binding signal (z-score)", "setting": "[4]", "value": -0.146}, {"measurement": "glycan array binding signal (z-score)", "setting": "[5]", "value": 0.088}, {"measurement": "glycan array binding signal (z-score)", "setting": "[6]", "value": -0.286}, {"measurement": "glycan array binding signal (z-score)", "setting": "[7]", "value": -0.334}, {"measurement": "glycan array binding signal (z-score)", "setting": "[8]", "value": 0.344}, {"measurement": "glycan array binding signal (z-score)", "setting": "[9]", "value": 4.37}, {"measurement": "glycan array binding signal (z-score)", "setting": "[10]", "value": -0.265}, {"measurement": "glycan array binding signal (z-score)", "setting": "[11]", "value": 0.161}, {"measurement": "glycan array binding signal (z-score)", "setting": "[12]", "value": -0.069}, {"measurement": "glycan array binding signal (z-score)", "setting": "[13]", "value": 0.09}, {"measurement": "glycan array binding signal (z-score)", "setting": "[14]", "value": -0.389}, {"measurement": "glycan array binding signal (z-score)", "setting": "[15]", "value": 0.457}, {"measurement": "glycan array binding signal (z-score)", "setting": "[16]", "value": 0.11}, {"measurement": "glycan array binding signal (z-score)", "setting": "[17]", "value": -0.089}, {"measurement": "glycan array binding signal (z-score)", "setting": "[18]", "value": 0.344}, {"measurement": "glycan array binding signal (z-score)", "setting": "[19]", "value": 0.719}, {"measurement": "glycan array binding signal (z-score)", "setting": "[20]", "value": 0.028}, {"measurement": "glycan array binding signal (z-score)", "setting": "[21]", "value": 1.22}, {"measurement": "glycan array binding signal (z-score)", "setting": "[22]", "value": 0.666}]}]}
